Reference: PubChem BioAssay AID485281 (National Center for Advancing Translational Sciences (NCATS), 2010)
Hit rate of the full screen: of about 350,000 compounds, about 260 (0.074%) were called active. The inconclusive results got no clear call from the source; some entries with a clear call stand among them for comparison. The call rests on the fitted dose curve; in most records, active means well fitted inhibition curve with a large enough effect; inconclusive means small, poorly fitted or top-dose-only effect; inactive means no such curve, though single readings can be large or run the other way. A potency beside an inconclusive call is a rough fit, not a confirmed value.

Each compound was assayed against Ferritin light chain (Equus caballus) (UniProt P02791) (assay: qHTS Assay for Identification of Novel General Anesthetics). Conditions: apoferritin/1-aminoanthracene competitive binding, fluorescence; activity change, negative = displacement: at 77.5 µM (top of the series).
Method in brief: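 Horse-spleen apoferritin (10 uM) was mixed with 50% saturated 1-aminoanthracene in PBS, exposed to compounds for 10 min at room temperature, and read for fluorescence (ex 380 nm, em 535 nm). Competitive displacement was fitted with a four-parameter Hill equation.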
Further: nearly all actives have a fitted effect of over 20% in size.
On the % scale 0 is the no-effect control and ±100 the full control effect; potency means the concentration at half of the fitted maximal effect; tags describe the fitted curve by direction and shape.

UniProt P02791, sequence (P02791 whole entry, looked up): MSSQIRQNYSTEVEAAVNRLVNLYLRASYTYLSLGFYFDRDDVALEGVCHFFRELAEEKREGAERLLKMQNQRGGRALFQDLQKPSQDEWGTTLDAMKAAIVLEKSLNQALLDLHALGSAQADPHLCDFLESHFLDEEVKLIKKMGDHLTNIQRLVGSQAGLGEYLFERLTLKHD

SMILES | Potency | activity change, negative = displacement
O=C(c1ccccc1)c1ccc(Cn2cc(-c3ccccc3)nn2)cc1 | inconclusive: 8.91 µM [inhibitor, partial curve] | 
CCOc1ccc(C2CC(=O)Nc3c2c(=O)[nH]c2ncnn32)cc1 (centres undefined) |  | inactive: 0.918%
Clc1ccc2[nH]c3c(NCCCN4CCOCC4)ncnc3c2c1 |  | inactive: -9.48%
CCCc1nnc(NC(=O)CCC(=O)O)s1 |  | inactive: 2.48%
COc1ccc(-c2cc(C(=O)Nc3c(C)nn(Cc4ccccc4C)c3C)no2)cc1 |  | inactive: -7.11%
CCN1C(=O)/C(=C2/C=Cc3cc(C)ccc3N2CC)N(C)C1=S |  | inactive: -14.3%
O=C(N/C=C/c1ccc(Cl)cc1)NCc1ccc(Cl)cc1 | inconclusive: 39.8 µM [inhibitor, partial curve] | 
Nc1nc(NC(=O)c2cccc(S(=O)(=O)N3CCCCCC3)c2)nc(-c2ccccc2)n1 | inconclusive: 22.4 µM [inhibitor, partial curve] | 
O=C(NCCCN1CCCC1=O)c1cc(NS(=O)(=O)c2ccc(F)cc2)cc(NS(=O)(=O)c2ccc(F)cc2)c1 |  | inactive: -23.5%
CC(=O)N1N=C(c2cccc(Cl)c2)OC1c1ccc(C(C)C)cc1 (centres undefined) | inconclusive: 39.8 µM [inhibitor, partial curve] | 
O=C(NC(=S)Nc1ccc(N2CCCCC2)cc1)c1cccs1 | inconclusive: 31.6 µM [inhibitor, partial curve] | 
N#CC1=C(N)NC(SCC(=O)Nc2ccc(Br)cc2)=C(C#N)C12CCCCC2 | inconclusive: 17.8 µM [inhibitor, partial curve] | 
Cc1ccc(-c2cc(C(=O)Nc3ccc(S(=O)(=O)Nc4nc(C)cc(C)n4)cc3)c3ccccc3n2)cc1 | inconclusive: 39.8 µM [inhibitor, single point] | 
CC1(C)CC2CC(C)(CN2C(=O)c2ccc([N+](=O)[O-])cc2[N+](=O)[O-])C1 (centres undefined) | inconclusive: 28.2 µM [inhibitor, single point] | 
NNC(=O)CCCNc1ncc(C(F)(F)F)cc1Cl | inconclusive: 31.6 µM [inhibitor, partial curve] | 
CC1=CCC2C(=O)N(c3ccc(Br)cc3C)C(=O)C2C1 (centres undefined) | inconclusive: 14.1 µM [inhibitor, partial curve] | 
CCc1ccc(NC(=O)CSCCN2C(=O)c3ccccc3C2=O)cc1 | inconclusive: 28.2 µM [inhibitor, single point] | 
COc1ccccc1NC(=S)N(CCCN1CCOCC1)Cc1cccs1 | inconclusive: 25.1 µM [inhibitor, partial curve] | 
COc1ccccc1OC(C)C(=O)N1CCC(c2nc3ccccc3s2)CC1 (centres undefined) |  | inactive: 11%
Cc1ccc(C)c(CN2C(=O)CSc3ccc(C(=O)NCc4ccccc4)cc32)c1 | inconclusive: 0.891 µM [inhibitor, full curve, poor fit] | 
CCn1c(CSc2nc3ccccc3s2)nnc1SCC(=O)c1ccc2c(c1)OCCO2 | inconclusive: 28.2 µM [inhibitor, partial curve] | 
COc1ccc(C(=O)COC(=O)CN2C(=O)C3C4C=CC(C5CC45)C3C2=O)cc1 (centres undefined) | inconclusive: 10 µM [inhibitor, partial curve] | 
Cc1c(NC(=O)C(=O)/C=C(\O)c2ccc(Br)cc2)c(=O)n(-c2ccccc2)n1C | inconclusive: 25.1 µM [inhibitor, single point] | 

SMILES | Potency | activity change, negative = displacement
CC(C)CNS(=O)(=O)c1ccc(S(=O)(=O)N2CCCN(Cc3ccccc3)C2)cc1 | inconclusive: 20 µM [inhibitor, partial curve] | 
CCOc1ccc(C(=O)NCCc2csc(-c3cccnc3)n2)cc1 | inconclusive: 11.2 µM [inhibitor, single point] | 
CCNC(=O)C1CCCN(c2nn3cc(-c4ccc(C)cc4)nc3s2)C1 (centres undefined) |  | inactive: -2.4%
COc1cccc(Cn2cc(C)cc(NC(=O)NCc3ccccc3)c2=O)c1 | inconclusive: 4.47 µM [inhibitor, full curve] | 
Cc1c(-n2cc(C(=O)O)c(=O)c3cc(F)c(N4CCCC(O)C4)c(F)c32)c(=O)n(-c2ccccc2)n1C (centres undefined) |  | inactive: -5.83%
COc1cc2c(cc1OC)CN(C(=S)Nc1ccc(OC(F)F)cc1)CC2 | inconclusive: 39.8 µM [inhibitor, partial curve] | 
CCC(C)S(=O)(=O)c1oc(-c2ccc(F)cc2)nc1S(=O)(=O)c1ccc(F)cc1 (centres undefined) | inconclusive: 35.5 µM [inhibitor, partial curve] | 
NC(=O)c1ccc([N+](=O)[O-])cc1SCc1ccccc1 | inconclusive: 35.5 µM [inhibitor, partial curve] | 
COC(=O)Cn1c(C(=O)N(C)C)cc2c1C[C@H]1CN(C(=O)c3ccccc3)[C@@](Cc3ccc(OC)cc3)(C(=O)OC)[C@@H]21 |  | inactive: -8.28%
CCc1cc(C(=O)NCc2ccc(F)cc2)no1 | inconclusive: 25.1 µM [inhibitor, partial curve] | 
O=C(Nc1ccc(Cl)cc1)Nc1nc(-c2ccccc2)cs1 |  | inactive: 4.74%
O=c1/c(=C/c2ccco2)sc2nc(-c3ccccc3Br)nn12 |  | inactive: -15.7%
CCCCCCNC(=O)c1ccc(Br)o1 | inconclusive: 112 µM [inhibitor, single point] | 
CCOC(=O)c1sc(Nc2cccc(Cl)c2)nc1C | inconclusive: 22.4 µM [inhibitor, partial curve] | 
O=C(CCNc1cccc(F)c1)c1cc2ccccc2o1 | inconclusive: 11.2 µM [inhibitor, partial curve] | 
Cc1cc(C)c(Cn2c3ccccc3c3cnn(CC(=O)N4CCCCC4)c(=O)c32)c(C)c1 |  | inactive: -12.3%
CN1C(=O)CC(=O)N(C)c2cc(S(=O)(=O)N(C)Cc3ccccc3)ccc21 | inconclusive: 14.1 µM [inhibitor, partial curve] | 
COc1cccc(Cn2nnc(C(=O)Nc3ccc(C)cc3)c2N)c1 | inconclusive: 2.24 µM [inhibitor, full curve] | 
Cc1ccc2c(c1)c1c(c(=O)n(-c3ccccc3)c(=O)n1CC(=O)N1CCCC1)n2C |  | inactive: 6.86%
Cc1ccc(Nc2ncc3c(n2)CC(c2ccco2)CC3=O)c(C)c1 (centres undefined) | inconclusive: 31.6 µM [inhibitor, partial curve] | 
O=C1CN(C(=O)COC(=O)COc2ccc3c(c2)CCC3)c2ccccc2N1 | inconclusive: 20 µM [inhibitor, partial curve] | 
CC(=O)c1sc(-c2ccc(Cl)cc2)cc1N |  | inactive: -8.86%
CC(=O)c1cccc(NS(=O)(=O)c2ccc3[nH]c4c(c3c2)CCCCCC4)c1 | inconclusive: 14.1 µM [inhibitor, partial curve, poor fit] | 

SMILES | Potency | activity change, negative = displacement
O=C(COC(=O)c1ccccc1C(=O)c1ccccc1)NCc1ccc(F)cc1 | inconclusive: 35.5 µM [inhibitor, single point] | 
CCCCCCSC1=C(C#N)C(=O)NC2(CCCCC2)S1 | inconclusive: 35.5 µM [inhibitor, single point] | 
Cc1cc(C)cc(NC(=O)c2cccc(N3C(=O)C4C5C=CC(C5)C4C3=O)c2)c1 (centres undefined) | inconclusive: 28.2 µM [inhibitor, partial curve] | 
CCN(CC)S(=O)(=O)c1ccc2c(c1)nc(SCc1nc3ccsc3c(=O)[nH]1)n2CC | inconclusive: 12.6 µM [inhibitor, partial curve] | 
CCn1c(SCC(=O)c2cc(C)n(-c3ccc(C(=O)OC)cc3)c2C)nnc1-c1cccnc1 | inconclusive: 22.4 µM [inhibitor, partial curve] | 
Cn1c(N)c(C(=O)CSc2nnc(-c3ccccc3F)n2N)c(=O)n(C)c1=O |  | inactive: 5.52%
CCOC(=O)/C=c1\s/c(=C\c2c(OCC)ccc3ccccc23)c(=O)n1CC(=O)NCC1CCCO1 (centres undefined) |  | inactive: -19.4%
CC(C)CCOc1ccc(C2=NNC(=O)CC2)cc1 | inconclusive: 50.1 µM [inhibitor, single point] | 
Cc1ccc(NC(=O)CCn2c(=O)c3cccn3c3ccccc32)c(Cl)c1 |  | inactive: 5.88%
COc1ccc(CCNC(=O)Cn2cc(C(=O)c3ccccc3)c(=O)c3ccc(C)nc32)cc1OC | inconclusive: 1.41 µM [inhibitor, full curve] | 
COc1ccccc1C(=O)N1CCN(C2CCN(Cc3ccccc3)CC2)CC1 |  | inactive: -9.56%
CC1CN(C(=O)c2ccc(NS(=O)(=O)c3cccc(Cl)c3)cc2)CC(C)O1 (centres undefined) |  | inactive: -5.84%
COc1cccc(CNc2ccc3c(c2)CCC3)c1 | inconclusive: 12.6 µM [inhibitor, partial curve] | 
CCCCCCCCCc1nc2sc3c(c2c(=O)n1NC(=O)c1ccc([N+](=O)[O-])cc1)CC(C)(C)OC3 |  | inactive: -2.73%
O=C(NCCN1CCN(c2ccccc2)CC1)C1CCCN(S(=O)(=O)c2cnc[nH]2)C1 (centres undefined) |  | inactive: -3.21%
O=C(NC(=S)Nc1nc(-c2ccccc2)cs1)c1cccnc1 |  | inactive: -1.2%
CC1CCCCN1C(=O)COc1ccc(NC(=O)c2ccco2)cc1 (centres undefined) | inconclusive: 31.6 µM [inhibitor, single point] | 
Cc1ccc(CC(=O)OCC(=O)NC2CCCC(C)C2C)cc1C (centres undefined) | inconclusive: 15.8 µM [inhibitor, partial curve] | 
Cc1ccccc1NC(=S)c1nc2ccccc2[nH]1 | inconclusive: 50.1 µM [inhibitor, single point] | 
COC1=Cc2c(ccc3ccc(=O)oc23)OC1(C)C | inconclusive: 35.5 µM [inhibitor, single point] | 
O=C(c1ccco1)N1N=C(c2ccc(Cl)cc2)CC1c1ccco1 (centres undefined) |  | inactive: -11.7%
CCn1nc(C(=O)OC(C(=O)c2c[nH]c3ccccc23)c2ccccc2)c2ccccc2c1=O (centres undefined) | inconclusive: 5.62 µM [inhibitor, partial curve] | 
CCc1nc2ccccc2n(CCOCCn2c(=O)c(CC)nc3ccccc32)c1=O |  | inactive: -5.86%
